Results published in paper PMC4336329 (PLoS ONE, 2015).
The campaign covered roughly 310,000 compounds. About 14,000 (4.5%) showed an effect of 50% or more. The effect is printed as a negative number. Some of the results follow.

molecular target: human ether-à-go-go-related gene (hERG) potassium channel (human, UniProt Q12809); test: primary screen, population patch clamp on CHO cells stably expressing hERG
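Also: peak tail current of the secondary pulse compared with the same well before compound.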

human ether-à-go-go-related gene (hERG) potassium channel, sequence (Q12809 whole entry, looked up): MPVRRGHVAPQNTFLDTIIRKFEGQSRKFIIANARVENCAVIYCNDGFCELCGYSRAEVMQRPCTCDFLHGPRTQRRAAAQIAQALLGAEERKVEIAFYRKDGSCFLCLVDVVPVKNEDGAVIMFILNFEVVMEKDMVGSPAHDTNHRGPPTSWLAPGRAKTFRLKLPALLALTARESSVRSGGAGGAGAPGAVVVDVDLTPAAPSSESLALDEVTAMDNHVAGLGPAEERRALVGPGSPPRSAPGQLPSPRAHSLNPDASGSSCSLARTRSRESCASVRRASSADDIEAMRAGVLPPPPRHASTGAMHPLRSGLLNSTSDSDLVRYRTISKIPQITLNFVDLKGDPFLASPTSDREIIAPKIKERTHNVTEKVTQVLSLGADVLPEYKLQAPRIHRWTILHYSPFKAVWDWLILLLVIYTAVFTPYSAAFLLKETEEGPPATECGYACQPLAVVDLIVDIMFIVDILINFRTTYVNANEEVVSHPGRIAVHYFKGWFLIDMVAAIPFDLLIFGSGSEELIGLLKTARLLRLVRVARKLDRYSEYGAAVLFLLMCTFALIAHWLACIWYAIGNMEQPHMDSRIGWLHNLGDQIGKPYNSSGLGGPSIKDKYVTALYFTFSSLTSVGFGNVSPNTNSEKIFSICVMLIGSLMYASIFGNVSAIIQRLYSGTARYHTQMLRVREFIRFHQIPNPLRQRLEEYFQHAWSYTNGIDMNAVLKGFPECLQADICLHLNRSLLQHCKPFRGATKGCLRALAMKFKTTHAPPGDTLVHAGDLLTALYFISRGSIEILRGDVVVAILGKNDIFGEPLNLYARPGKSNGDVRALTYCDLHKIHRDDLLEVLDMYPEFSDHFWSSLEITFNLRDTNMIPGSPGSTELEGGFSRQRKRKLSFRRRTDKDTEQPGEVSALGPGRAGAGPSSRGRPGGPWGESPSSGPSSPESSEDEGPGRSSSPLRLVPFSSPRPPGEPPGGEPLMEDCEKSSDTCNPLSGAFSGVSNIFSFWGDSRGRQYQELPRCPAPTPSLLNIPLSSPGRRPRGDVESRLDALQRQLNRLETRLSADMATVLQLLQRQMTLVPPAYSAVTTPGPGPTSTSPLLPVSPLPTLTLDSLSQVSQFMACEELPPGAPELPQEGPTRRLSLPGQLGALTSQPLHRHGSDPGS

Structure (SMILES) | hERG current change (%, negative = inhibition) at 10uM [%]
COCCCn1c(O)c(/C=C2\N=C(C#N)C(=Nc3ccc(C)cc3)O2)sc1=S | 15.8
CN1CCC2(CC1)N=C(c1ccc(F)cc1)C(=S)N2 | -13.7
COc1ccccc1NC(=O)CSc1nnc(CNC(=O)c2ccco2)n1C | 19.2
COc1ccc(OC)c(S(=O)(=O)N2CCCCCC2)c1 | 1.03
O=C(NCCc1ccncc1)Nc1cccc(Cl)c1 | -3.75
CCCCCOC(=O)Cc1c(C)nc(-c2ccccc2)[nH]c1=O | -1.68
CNC(=O)CN1C(=O)COc2ccc(S(=O)(=O)N3CCCCCC3)cc21 | 17.2
O=C1C2C3C=CC(C3)C2C(=O)N1c1n[nH]c(CCc2ccccc2)n1 (stereo not shown) | 3.66
CN(C(=O)COC(=O)C1CCN(S(=O)(=O)c2c(Cl)cccc2Cl)CC1)c1ccccc1 | -34.1
CCOc1ccc(NC(N)=O)cc1 | 7.46
Cn1c(=O)c2c(nc(Oc3ccccc3)n2C)n(C)c1=O | -0.252
O=C(NCc1ccccc1)c1ccc2c(=O)[nH]c3c(C(=O)NCC4CCCO4)sc(=S)n3c2c1 (stereo not shown) | 4.56
COc1ccc(OC)c(S(=O)(=O)N2CCC(C(=O)NC3CCCC3)CC2)c1 | 8.63
Brc1ccc(-c2nnc(-c3ccc4c(c3)OCO4)o2)o1 | 9.18
Cc1c(C(=O)NCCSCc2ccccc2)cccc1[N+](=O)[O-] | 8.73
COCCn1c(SCC(=O)Nc2ccc3c(c2)OCCO3)nc2c(c1=O)SC(C)C2 (stereo not shown) | -15.2
Cc1nc2ccccn2c(=O)c1CCN1CCC(C(=O)c2ccc(F)cc2)CC1 | -73.3
CC(C)C[C@H](NC(=O)NCc1ccc(Cl)cc1)C(=O)O | 2.18
O=C(NC(=O)c1ccc(Cl)cc1)OC1CCCCC1 | -10.1
O=C(Nc1ccc([N+](=O)[O-])cc1)C1CC12CCC2 (stereo not shown) | -6.99
COc1ccc(C(=O)N(C)C2CCCCC2)cc1S(=O)(=O)N1CCOCC1 | -3.28
O=C(CC1CCCC1)NCCS(=O)(=O)N1CCN(c2ccccc2F)CC1 | -3.83

Structure (SMILES) | hERG current change (%, negative = inhibition) at 10uM [%]
CCN(CC)c1ccc(/C=N/NC(=O)C(O)(c2ccccc2)c2ccccc2)o1 | -8.38
CCOc1cc(CN2CCc3c([nH]c4ccccc34)C2)ccc1OC | -19
CCN(CC)c1ccc(/C=C(\C#N)C(N)=S)cc1 | 6.62
CCCCSc1nnc(CSc2nc3nc(C)cc(C)n3n2)o1 | -31.9
COc1ccc(-c2cc(C(F)(F)F)n3ncc(C(=O)Nc4c(C)n(C)n(-c5ccccc5)c4=O)c3n2)cc1 | 10.7
O=C(Nc1ccc(Nc2ccccc2)cc1)c1c(F)c(F)c(F)c(F)c1F | 22.9
Cc1cc(C2=CC(C)(c3cc(C)oc3C)Nc3nc(C(F)(F)F)nn32)c(C)o1 (stereo not shown) | 11.6
Cn1/c(=N/N=C/c2ccc(Cl)c([N+](=O)[O-])c2)sc2ccccc21 | 8.02
Cc1cc(C)cc(NS(=O)(=O)c2c(C(=O)N3CCOCC3)c(C)n(C)c2C)c1 | 11.8
CCc1cccc(NC(=O)c2cc(S(=O)(=O)N(C)C)ccc2N2CCCC2)c1 | -36.9
FC(F)(F)c1ccc(NCc2ccccn2)nc1 | -1.34
O=C(COC(=O)c1cc(-c2ccc(F)cc2)nc2ccccc12)NCC1CCCO1 (stereo not shown) | -36.6
O=C(/C=C/c1cccs1)Nc1cccc(NC(=O)/C=C/c2cccs2)n1 | 6.25
COc1cc(C(=O)Nc2sc(C(=O)N3CCOCC3)c(C)c2C#N)cc(OC)c1OC | 10.3
CCNC(=S)Nc1cc(OCC)c(N2CCOCC2)cc1OCC | 5.43
O=C(N/N=C/C1CCCCC1)c1ccccc1-n1cccc1 | 0.893
CCN(CC)S(=O)(=O)c1cccc(-c2nnc(SCC(=O)NC3CCCCCCC3)n2N)c1 | -30.2
O=C(C[n+]1cc(-c2ccccc2)n2c1CCC2)Nc1nc(-c2ccccc2)cs1.[Cl-] | -35.1
c1ccc(N2CCOCCOCCOCCOCC2)cc1 | -2.67
O=C(COC(=O)C1=COCCO1)Nc1c(F)cccc1F | -0.215
COc1cccc(-c2nc(CS(=O)(=O)CC(=O)N3CCN(C4CCCCC4)CC3)c(C)o2)c1 | -24.6
O=C(NC1CCCC1)C1CCCN1C(=O)Nc1ccc(Cl)cc1 (stereo not shown) | 0.574

Structure (SMILES) | hERG current change (%, negative = inhibition) at 10uM [%]
O=c1[nH]c(NCCO)nnc1Cc1ccccc1 | 15.7
COCCNC(=O)CCCn1c(=O)c2cc(OC)c(OC)cc2n(CC(=O)NCCC2=CCCCC2)c1=O | -2.16
NC(=O)c1ccccc1NC(=O)/C=C/c1c(Cl)cccc1Cl | -31.3
Cc1c(/C=C/C(=O)c2ccc(Cl)s2)cnn1C | 2.76
COc1ccc(C(Cl)=C(c2ccc(OC)cc2)c2ccc(OC)cc2)cc1 | 26.2
CN1C(=O)N(CC(=O)Nc2nccs2)C(=O)C12CCCCC2 | 0.285
O=C(CC1SCCNC1=O)Nc1ccc(F)c(Cl)c1 (stereo not shown) | 8.96
COc1ccc(/C=N/NC(=O)C(=O)NCc2cccnc2)cc1 | 11
O=C(Nc1cccc2c1N(C(=O)c1ccco1)CCC2)c1ccco1 | 14.4
CCCc1c2c(cc3c(=O)cc(C(=O)OCC)oc13)CCCC2 | -0.971
CCc1ccc(-n2c(=O)c3ccc(C(=O)NCCc4ccccc4)cc3n(CC(N)=O)c2=O)cc1 | 14.6
O=C(COc1ccc(Br)cc1)NC(=S)Nc1ccccc1N1CCOCC1 | 13.7
COc1ccc(C(CNC(=O)c2ccc(Cl)s2)N2CCOCC2)cc1 (stereo not shown) | -18.2
CC(NC(=O)C1c2ccccc2Oc2ccccc21)C1CCCO1 (stereo not shown) | 13.1
COc1cccc(NC(=O)c2cccc(S(=O)(=O)N3CCN(Cc4ccccc4)CC3)c2)c1 | -0.239
Cc1cc(Br)c(NC(=O)COn2nnc3ccc(S(C)(=O)=O)cc32)c(Br)c1 | -1.77
CC(=O)Nc1sc(N/N=C\c2ccccc2)nc1-c1cccs1 | 13.2
CCOc1cccc(/C(O)=C2/C(=O)C(=O)N(CCN3CCOCC3)C2c2ccncc2)c1 (stereo not shown) | -2.9
Cc1ccnc(NS(=O)(=O)c2ccc(NS(=O)(=O)c3ccccc3)cc2)n1 | -8.8
O=C(CNC(=O)c1ccco1)NCC(=O)OCc1ccc(Cl)cc1Cl | -40
Cc1ccc2c(CC(=O)NNC(=O)c3ccccc3O)coc2c1 | 4.63
NS(=O)(=O)c1ccc(N/N=C/c2ccc(C(=O)O)cc2)c([N+](=O)[O-])c1 | 0.688

Structure (SMILES) | hERG current change (%, negative = inhibition) at 10uM [%]
Cc1ccc(NNC(=O)c2ccno2)cc1C | 3.69
COc1ccc(-c2cc(C)no2)cc1S(=O)(=O)N1CCN(C(=O)c2ccco2)CC1 | -6.28
COc1ccc(/C=N/Nc2ncnc(Cl)c2N)cc1OC | 1.21
COc1ccc(-c2cc(=O)c3c(O)cc(O)cc3o2)cc1 | 14.5
CC1CCN(C(=O)COC(=O)c2ccc(F)c(S(=O)(=O)N3CCOCC3)c2)CC1 | 2.38
O=C(Oc1ccc(Br)cc1)c1cccc(S(=O)(=O)N2CCOCC2)c1 | -35.6
COc1ccc(N(CC(=O)NC(C)c2ccccc2)S(=O)(=O)c2c(C)noc2C)cc1 (stereo not shown) | 8.89
CSc1nc(-c2ccccc2)nc(C(Cl)Cl)n1 | 8.69
COc1cc([N+](=O)[O-])ccc1NC(=S)Nn1cnnc1 | 23.1
COc1ccc(OC)c2[nH]c(=O)c(CCNS(=O)(=O)c3ccc(F)cc3)cc12 | 1.59
CCCC(=O)Nc1ccc(Oc2ccc(NC(=O)CCC)cc2)cc1 | 2.76
Cc1ccc(-c2n[nH]c(=S)n2/N=C\c2ccco2)cc1 | 24.1
O=c1cc(N2CCN(Cc3ccccc3)CC2)[nH]c(=O)n1-c1ccc(Br)cc1 | -10.7
CC(C)(C)C(=O)NC1CCN(S(=O)(=O)c2ccc(C(F)(F)F)cc2)CC1 | -18
CC(=O)Oc1ccc(C23CC4CC(CC(C4)C2)C3)cc1C(=O)O | 14.2
CCOC(=O)C1=C(C)N(C)C(C)=C(C(=O)OCC)C1c1ccncc1 | -9.93
CSC1=C(C#N)C(C)CC(=O)N1 (stereo not shown) | 7.92
CCN(CC(=O)N1CCC(C(N)=O)CC1)S(=O)(=O)c1ccc(Cl)cc1 | 3.96
COc1ccccc1N(CC(=O)NCC1CCCO1)C(=O)CNS(=O)(=O)c1ccc(C)cc1 (stereo not shown) | 11.5
CC(C)C(C(=O)Nc1nccs1)N1C(=O)c2ccccc2C1=O (stereo not shown) | 22.7
O=C(c1ccccc1Cl)N1CCN(c2ccccn2)CC1 | 2.7
CCN1CCN(c2cc(C)c3cc(NC(=O)c4cccs4)ccc3n2)CC1 | -55.1
